Laboratory results reported in PubChem BioAssay AID651820 (National Center for Advancing Translational Sciences (NCATS), 2012).
Where “and” joins values, the source holds several entries; their conditions need not be identical. Equal values may be shown once. Among all 340,000 compounds or so, about 12,000 (3.5%) were called active. The shares of active, inactive and inconclusive entries below differ from those in the screen. Calls come from the whole dose curve; as a rule, active = well fitted inhibition curve with a large enough effect; inconclusive = small, poorly fitted or top-dose-only effect, or another doubt; inactive = no such curve, though single readings can be large or run the other way. Where the call is inconclusive, the potency comes from a doubtful curve fit.

Test: qHTS Assay for Inhibitors of Hepatitis C Virus (HCV)
Conditions: Huh7.5.1 HCVcc-Cre (HCVcc is cell-culture hepatitis C virus) infection, luciferase reporter, 44 h; activity change, negative = inhibition: at 41.8 µM (top of the series) unless noted
How it was run: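 HCVcc-Cre virus at an moi near 0.5 was added right after compound to cells cultured 4 h from seeding (1,000 cells/well). Luciferase activity was determined 44 h later, 15 min after substrate addition at RT.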
% is set by controls: 0 for no effect and ±100 for the full control effect; potency is the fitted concentration of half-maximal effect; tags give direction and shape of the fitted curve.

SMILES | Potency | activity change, negative = inhibition
O=C(O)c1ccccc1C(=O)NCCc1c(C(=O)O)[nH]c2ccc(F)cc12 | inconclusive: 3.98 µM [inhibitor, single point] | –
COc1ccccc1Sc1ccccc1CC(C)N (stereo unspecified) | inconclusive: 14.1 µM [inhibitor, partial curve, poor fit] | –
O=C(COC(=O)c1ccc([N+](=O)[O-])o1)Nc1nc2ccccc2s1 | active: 10 µM | –
O=C(NC(=S)NCc1cccnc1)c1ccc([N+](=O)[O-])cc1 | – | inactive: 9.98%
CC(=O)Nc1ccc(N/C=C/C(=O)c2ccco2)cc1 | – | inactive: -1.19%
c1ccc(CN2CCN(c3nc(N4CCOCC4)c4ccccc4n3)CC2)cc1 | inconclusive: 10 µM [inhibitor, partial curve] | –
COc1ccc(OC)c(NC(=O)Cc2csc(NC(=O)Nc3ccccc3OC)n2)c1 | active: 8.91 µM | –
O=C(NN(C(=O)C1CC1)c1nc2ccccc2s1)C1CC1 | – | inactive: 10.1%
COc1ccc(-c2nc(CS(=O)(=O)CC(=O)NCc3cccc(OC)c3OC)c(C)o2)cc1 | inconclusive: 14.1 µM [inhibitor, partial curve] | –
Cn1c(SCC(=O)Nc2ccc3nc(SCC(=O)N4CCCC4)sc3c2)nnc1-c1ccc(N)cc1 | inconclusive: 10 µM [inhibitor, partial curve] | –
CCOC(=O)N1CCC(N(CCN(C)C)C(=S)Nc2cccc(Cl)c2)CC1 | inconclusive: 11.2 µM [inhibitor, single point] | –
CC(=O)Nc1ccc(OC(=O)N2CCCCC2)cc1 | – | inactive: 8.35%
Cc1ccc(NC(=O)c2cc(-c3cccc(O)c3)on2)cc1C | inconclusive: 10 µM [inhibitor, single point] | –
Cc1onc(-c2c(Cl)cccc2Cl)c1C(=O)Nn1cnnc1 | – | inactive: 5.11%
Cn1c(NCC(O)c2ccccc2)nc2c1c(=O)n(Cc1ccc(Cl)cc1)c(=O)n2C (stereo unspecified) | inconclusive: 31.6 µM [inhibitor, single point] and inconclusive: 10 µM [inhibitor, partial curve] | –
COc1ccc(CCNC(=O)c2ccc3c(c2)N(Cc2ccc(F)cc2)CCS3)c(OC)c1 | inconclusive: 14.1 µM [inhibitor, partial curve] | –
CN(c1ccccc1)S(=O)(=O)c1cccc(C(=O)NCc2ccccc2CN2CCCC2)c1 | inconclusive: 12.6 µM [inhibitor, partial curve] | –
COc1ccc(-c2cn(CCc3c[nH]c4ccccc34)nn2)cc1 | inconclusive: 6.31 µM [inhibitor, full curve] | –
CC(C)CCn1cnc2c(c1=O)c1nc3ccccc3nc1n2Cc1ccc2c(c1)OCO2 | – | inactive: -12.7%
O=C1C=C(NCc2ccc(Cl)cc2)CCC1 | – | inactive: 24.4%
Cc1cc(C(C)(C)C)oc1C(=O)N(CC(=O)NC1CCCC1)c1cccc(C(F)(F)F)c1 | inconclusive: 6.31 µM [inhibitor, partial curve] | –
COCCn1c(CN2CCN(c3cccc(Cl)c3)CC2)nc2c1c(=O)n(C)c(=O)n2C | inconclusive: 11.2 µM [inhibitor, single point] | –
COc1ccccc1CNC(=S)Nc1ccc(S(N)(=O)=O)cc1 | inconclusive: 22.4 µM [inhibitor, single point] | –
COc1cc(OC)cc(-c2c(-c3cccs3)c3cc(-c4ccc(OC)nc4)ccc3n2C)c1 | – | inactive: -8.98%

SMILES | Potency | activity change, negative = inhibition
COc1ccc(C2=CC(c3sccc3C)n3nnnc3N2)cc1 (stereo unspecified) | inconclusive: 8.91 µM [inhibitor, partial curve] | –
O=C(c1ccc(-c2ccccc2Cl)o1)N1CCCCCCC1 | inconclusive: 31.6 µM [inhibitor, single point] | –
Cc1cc(Cl)ccc1OCC(=O)NNC(=O)C1CCN(c2ncnc3sc(C)c(C)c23)CC1 | inconclusive: 4.47 µM [inhibitor, partial curve] | –
CCOC(=O)C1CCCN(S(=O)(=O)c2cc3[nH]c(=O)c(=O)[nH]c3cc2C)C1 (stereo unspecified) | – | inactive: 18%
Cn1cc(CNC(=O)c2cc(COc3ccc4c(c3)CCCC4)on2)cn1 | – | inactive: -22.1%
CCOC(=O)c1[nH]c2ccc(C)cc2c1N=C(C)N(C)C | inconclusive: 3.16 µM [inhibitor, partial curve] | –
COC(=O)C1=COC(C)C2CN3CCc4c([nH]c5ccccc45)C3CC12 (stereo unspecified) | – | inactive: -69.2%
COCCn1c(=O)[nH]c2cc(C(=O)N3CCN(c4cc(C)ccc4C)CC3)ccc2c1=O | inconclusive: 14.1 µM [inhibitor, partial curve] | –
COc1ccc(NC(=O)c2ccccc2Cl)cc1NC(=O)CN1CCOCC1 | – | inactive: -15.5%
COc1cc(OC)c2c(-c3ccccc3)cc(=O)oc2c1C(CC(=O)N1CCN(c2ccccc2)CC1)c1ccc(N(C)C)cc1 (stereo unspecified) | inconclusive: 6.31 µM [inhibitor, partial curve] | –
O=C(c1ccc(Cl)c(Cl)c1)N1CCC(=O)N(C(COCc2cccc(Cl)c2)Cc2ccccc2)CC1 (stereo unspecified) | inconclusive: 22.4 µM [inhibitor, single point] | –
O=C(c1cc2ccccc2o1)N1CCN(S(=O)(=O)c2ccc(Cl)s2)CC1 | inconclusive: 31.6 µM [inhibitor, single point] | –
CSc1ccc(/C=C2\C(=N)N3N=C(CC(=O)N4CCCCC4)SC3=NC2=O)cc1 | – | inactive: 12.8%
Cc1ccc(C(=O)NC(=C(Cl)Cl)S(=O)(=O)c2ccccc2)cc1 | active: 11.2 µM | –
Cc1cc(C(=O)NC2CCCc3c2cnn3-c2ccc(C)c(C)c2)no1 (stereo unspecified) | inconclusive: 31.6 µM [inhibitor, single point] | –
CC(NC(=O)c1ccccc1)C(=O)OCn1nnc2ccccc2c1=O (stereo unspecified) | inconclusive: 10 µM [inhibitor, partial curve] | –
O=[N+]([O-])c1ccc(S(=O)(=O)N2CCN=C2SCc2cccnc2)cc1 | – | inactive: -0.375%
Cc1ccc2c(C)c(C(=O)N3CCC(O)(c4ccccc4)CC3)oc2c1C | inconclusive: 5.62 µM [inhibitor, single point] | –
Cn1c2ccccc2c2cc(/C=N/NC(=O)c3ccccc3F)ccc21 | active: 14.1 µM | –
CCC(=O)Nc1sc(Cc2ccccc2)c(C)c1C(N)=O | inconclusive: 31.6 µM [inhibitor, single point] | –
O=C(CSc1nnc(-c2ccccc2)c(-c2ccccc2)n1)NCC1CCCO1 (stereo unspecified) | inconclusive: 22.4 µM [inhibitor, single point] | –
CC(C)(C)NC(=O)CSc1nc2cccnc2n1C1CCCCC1 | inconclusive: 31.6 µM [inhibitor, single point] | –
COc1ccccc1NC(=O)c1cc2cc(Br)ccc2oc1=N | inconclusive: 31.6 µM [inhibitor, single point] | –
COC(=O)c1ccc(Oc2nc(Nc3ccc(C)c(C)c3)nc(N(C)C)n2)cc1 | active: 8.91 µM | –

SMILES | Potency | activity change, negative = inhibition
Cc1ccc(S(=O)(=O)NCCc2ccncc2)cc1[N+](=O)[O-] | – | inactive: 8.44%
CCc1nn(C(CC)C(=O)NCc2cccc(OC)c2)c(=O)c2cc3occc3n12 (stereo unspecified) | inconclusive: 28.2 µM [inhibitor, single point] | –
O[C@@H]1[C@@H](O)C=C2CCN3Cc4cc5c(cc4[C@H]1C23)OCO5 (stereo partly specified) | active: 3.16 µM | –
CCC(C)NC(=O)C1CCCN(c2nc(C)cc(OC)n2)C1 (stereo unspecified) | – | inactive: -6.76%
CO/N=C/C(C#N)=C/c1cc(C(=O)c2ccccc2)cn1C | active: 10 µM | –
CCCS(=O)(=O)N1CCCC(C(=O)NCCN2CCC(Cc3ccccc3)CC2)C1 (stereo unspecified) | inconclusive: 0.562 µM [inhibitor, full curve, poor fit] | –
Nc1nc(NCCO)nc(N2CCCCCC2)c1[N+](=O)[O-] | – | inactive: -6.06%
COc1cccc(/C=C2\SC(=S)N(CCCC(=O)N(CCO)c3ccccc3)C2=O)c1 | inconclusive: 15.8 µM [inhibitor, single point] | –
O=P(N1CCCCC1)(N1CCCCC1)C(Cl)(Cl)Cl | – | inactive: -0.969%
CCOC(=O)c1ccc(CNC(=O)c2cc(C(C)(C)C)oc2C)o1 | inconclusive: 10 µM [inhibitor, partial curve] | –
COC(=O)c1cnc(Oc2ccc(NC(=O)NC(=O)c3c(F)cccc3Cl)cc2)cc1C(F)(F)F | inconclusive: 0.501 µM [inhibitor, partial curve, poor fit] | –
COc1ccccc1N1CCN(C(CNS(=O)(=O)c2ccc(C)cc2)c2cccnc2)CC1 (stereo unspecified) | – | inactive: -27.9%
O=C(CSc1ncccn1)Nc1cc(Cl)ccc1[N+](=O)[O-] | – | inactive: 20.2%
Cc1cccc2sc(NC(=O)C3CCN(S(=O)(=O)c4cc([N+](=O)[O-])ccc4Cl)CC3)nc12 | inconclusive: 5.01 µM [inhibitor, full curve] | –
COc1ccc(Nc2ncnc3c2cnn3Cc2ccccc2)cc1OC | inconclusive: 0.562 µM [inhibitor, full curve] | –
CC[C@@]1(C(=O)OC)N[C@H](CN(C)S(=O)(=O)c2ccc(OC(F)(F)F)cc2)[C@@H]2C(=O)N(C)C(=O)[C@@H]21 | – | inactive: -19.6%
O=C(NCCc1ccccc1)c1cc(S(=O)(=O)N2CCCC2)ccc1F | – | inactive: -26.9%
Cn1c(C(=O)NCCN2CCc3ccccc3C2)cc2c(=O)n(C)c3ccccc3c21 | inconclusive: 22.4 µM [inhibitor, single point] | –
CCOC(=O)c1c(NC(=O)CN2CCCCC2)sc2c1CCN(C(=O)OCC)C2 | active: 10 µM | –
O=C(Nc1ccncc1)Nc1ccc(F)c(Cl)c1 | – | inactive: 3.08%
COc1ccc(NC(=S)Nc2cc(C)ccn2)c(OC)c1 | inconclusive: 8.91 µM [inhibitor, partial curve] | –
Cc1ccc(OCc2cc(C(=O)N(C)Cc3cnn(-c4ccccc4C)c3)no2)cn1 | active: 11.2 µM | –
O=C(CSC1=NCCS1)Nc1ccc(S(=O)(=O)NC2CCCCC2)cc1 | inconclusive: 3.16 µM [inhibitor, single point] | –
